Measurements reported in PubChem BioAssay AID686979 (National Center for Advancing Translational Sciences (NCATS), 2013).
Several values for one entry are separate records, joined by “and”; a condition that tells them apart may be missing. Equal entries are not always repeated. Out of some 420,000 compounds screened, about 50,000 (12%) were called active. Inconclusive means that the source gave no clear call. Such entries were picked first, then a sample of the others. The call rests on the fitted dose curve; in most records, active means well fitted inhibition curve with a large enough effect; inconclusive means small, poorly fitted or top-dose-only effect; inactive means flat fitted curve, though single readings scatter. Potencies of inconclusive entries are doubtful fits and often do not repeat.

experiment: qHTS for Inhibitors of human tyrosyl-DNA phosphodiesterase 1 (TDP1): qHTS in cells in presence of CPT; conditions: chicken DT40 Tdp1-/-;hTDP1 cells + 20 nM CPT, ATP luminescence, 48 h; activity change, negative = growth inhibition: at 46.2 µM (top of the series); further: nearly all actives have a fitted effect of over 55% in size
Procedure, shortened: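 Chicken DT40 Tdp1-/- cells complemented with human TDP1, 400 cells/well, exposed to compounds plus 20 nM camptothecin for at least 48 h at 37 C; viability read as ATP content by CellTiter-Glo luminescence.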
On the % scale 0 is the no-effect control and ±100 the full control effect; potency means the concentration at half of the fitted maximal effect; tags describe the fitted curve by direction and shape.

Compound | Potency | activity change, negative = growth inhibition
Cc1csc(NC(=O)c2ccc3nc[nH]c3c2)n1 | inconclusive: 20.6 µM [inhibitor, single point] | –
COCCCN=C1NN=C(c2cc(C)n(-c3ccccc3)c2C)CS1 | inconclusive: 29.1 µM [inhibitor, single point] | –
O=C1CCN(Cc2ccccc2)CCN1[C@H](CSc1ccccc1)c1ccccc1 | – | inconclusive: -30.4% [inhibitor]
CCc1ccc(C2CC(c3ccccc3)Nc3nc(N)nn32)cc1 (stereo not given) | – | inactive: -6.16%
Cc1oc(-c2ccccc2NC(=O)c2cccnc2)nc1CNC(=O)C1CCCCCN1C (stereo not given) | inconclusive: 20.6 µM [inhibitor, single point] | –
COCCN(C(=O)COC(=O)c1cc(C)n(-c2ccccc2)c1C)c1c(N)n(Cc2ccccc2)c(=O)[nH]c1=O | – | inactive: 2.88%
CCN(CC)S(=O)(=O)c1ccc(O)c(C(=O)OCC(=O)N2c3ccccc3CC2C)c1 (stereo not given) | – | inactive: -13%
CCN(Cc1cc(OC)c(OC)c(OC)c1)C(=S)Nc1cccc(SC)c1 | inconclusive: 25.9 µM [inhibitor, partial curve, poor fit] | –
COc1ccccc1-c1cnc(C(O)c2cccc(C)c2C)[nH]1 (stereo not given) | active: 14.6 µM | –
O=C(NC(c1ccc(F)cc1)c1cnccn1)C1CCN(CCOc2ccc(Cl)cc2Cl)CC1 (stereo not given) | inconclusive: 25.9 µM [inhibitor, single point] | –
O=C(CSc1nc(-c2ccccc2)cc(C(F)(F)F)n1)NCc1ccco1 | inconclusive: 29.1 µM [inhibitor, single point] | –
COc1ccc2nc(SC)cc(C)c2c1 | – | inactive: -12.2%
N/C(=N\OC(=O)c1ccc(Cl)cc1)c1ccccn1 | – | inactive: -8.8%
CC[C@H]1OC(=O)[C@H](C)[C@@H](O[C@H]2C[C@@](C)(OC)[C@@H](O)[C@H](C)O2)[C@H](C)[C@@H](O[C@@H]2O[C@H](C)C[C@H](N(C)C)[C@H]2O)[C@](C)(O)C[C@@H](C)/C(=N\OCOCCOC)[C@H](C)[C@@H](O)[C@]1(C)O | inconclusive: 1.28 µM [inhibitor, full curve, poor fit] | –
Cc1ccc2c(cnn2C(=O)CCC(=O)N2CCCCC2)c1 | – | inactive: -6.89%
CCOc1ccc(CCNC(=O)CCC(=O)N2CCSc3ccccc32)cc1OCC | inconclusive: 18.4 µM [inhibitor, single point] | –
CCC(C)NC(=O)Cc1ccc(NC(=O)N2CCCCc3ccccc32)cc1 (stereo not given) | inconclusive: 29.1 µM [inhibitor, single point] | –
Cn1c(SCC(=O)N2CCN(c3ccccc3)CC2)nnc1-c1ccco1 | – | inactive: -19.7%
COc1ccccc1-c1ccc(SCc2ccccc2)nn1 | inconclusive: 23.1 µM [inhibitor, single point] | –
COc1cc(C2C(C#N)=C(N)N(c3sc4c(c3C#N)CCCC4)C3=C2C(=O)CC(C)(C)C3)cc(OC)c1OC (stereo not given) | active: 20.6 µM | –
Cc1ccc(NC(=O)Cn2c(O)c(N=NS(=O)(=O)c3ccc(C)cc3)c3ccccc32)cc1 | inconclusive: 23.1 µM [inhibitor, single point] | –
O=C(CS(=O)(=O)c1cccc2nsnc12)Nc1ccc(F)cc1F | – | inactive: -27.4%
CC(=O)c1ccc(Nc2nc(C(N)C(C)C)cs2)cc1 (stereo not given) | inconclusive: 29.1 µM [inhibitor, single point] | –
CN1CCN(c2ccccc2NC(=O)c2sc3ccccc3c2Cl)CC1 | inconclusive: 20.6 µM [inhibitor, single point] | –

Compound | Potency | activity change, negative = growth inhibition
Cc1cccc(N2CCN(C(=O)Cn3cnc4c3c(=O)n(C)c(=O)n4C)CC2)c1C | active: 23.1 µM | –
O=C(NNC(=O)c1ccccn1)c1ccc(OC(F)F)cc1 | active: 5.8 µM | –
Cc1ccc(S(=O)(=O)N2CCCOC2CNC(=O)C(=O)NCCc2c[nH]c3ccccc23)cc1 (stereo not given) | active: 14.6 µM | –
COc1ccc(CN(C(=O)CN2C(=O)COc3ccccc32)C2CCCC2)c(OC)c1 | inconclusive: 16.4 µM [inhibitor, single point] | –
CC(=O)N1CCOc2cc(S(=O)(=O)Nc3c(C)cccc3C(C)C)c(Cl)cc21 | inconclusive: 18.4 µM [inhibitor, single point] | –
Cc1ccc(N2C(=O)C3CC(c4ccccc4)=C4C5C=CC(C6C(=O)N(c7ccc(C)cc7C)C(=O)C56)C4C3C2=O)c(C)c1 (stereo not given) | inconclusive: 18.4 µM [inhibitor, single point] | –
COc1cccc(Nc2c([N+](=O)[O-])cncc2[N+](=O)[O-])c1 | inconclusive: 4.11 µM [inhibitor, single point] | –
O=C(Cc1ccccc1[N+](=O)[O-])NCCCc1ccccc1 | active: 16.4 µM | –
O=C(Nc1ccc(Cl)cn1)c1cccc(F)c1 | active: 7.31 µM | –
COc1ccc(N=c2cc(-c3ccc(OC)cc3)oc3ccccc23)cc1 | inconclusive: 29.1 µM [inhibitor, single point] | –
CC(C)C(=O)NC(c1cccc([N+](=O)[O-])c1)c1ccc2cccnc2c1O (stereo not given) | active: 4.61 µM | –
COc1cc2[nH]c(C(=O)N3CCC(Cc4ccccc4)CC3)cc2c(OC)c1OC | inconclusive: 16.4 µM [inhibitor, single point] | –
Cc1cccc(NC(=O)CNC(=O)CN2C(=O)NC3(CCCc4ccccc43)C2=O)c1C (stereo not given) | – | inactive: -1.36%
CC(C)CCNC(=O)c1c2c(nc3ccccc13)C(=O)N(C1CCCCC1)C2 | inconclusive: 20.6 µM [inhibitor, single point] | –
C=CCOc1nc2c(c(=O)n(C)c(=O)n2C)n1Cc1ccc(Cl)cc1Cl | active: 18.4 µM | –
CCOC(=O)N1CCC(N(CCN(C)C)C(=S)Nc2ccc(F)c(Cl)c2)CC1 | – | inactive: -2.81%
OCc1cccc(Nc2ncnc3sc4c(c23)CCCCC4)c1 | inconclusive: 20.6 µM [inhibitor, single point] | –
Cc1cc(C)n(S(=O)(=O)c2cc(C(=O)O)c(Cl)cc2Cl)n1 | – | inactive: -0.875%
Cc1ccc(-c2nc(CS(=O)CC(=O)N3CCN(c4ccc(F)cc4)CC3)c(C)o2)cc1 (stereo not given) | inconclusive: 20.6 µM [inhibitor, single point] and inconclusive: 18.4 µM [inhibitor, single point] | –
O=C(COC(=O)/C=C/c1cccs1)NC1CCCCC1 | – | inactive: -15.2%
CCOC(=O)c1c(-c2ccc(OC)cc2)csc1NC(=O)COc1ccc2c(C)cc(=O)oc2c1 | active: 23.1 µM | –
CN(CC(=O)NCc1cccnc1)S(=O)(=O)c1cc(Cl)ccc1Cl | inconclusive: 23.1 µM [inhibitor, partial curve, poor fit] | –
CCOC(=O)C1=C(C)N(c2ccccc2)C(=O)/C1=C\c1ccc(O)c(OC)c1 | – | inactive: -42.5%
O=C(Nc1cccnc1)NC1CCCCC1 | – | inactive: 2.36%

Compound | Potency | activity change, negative = growth inhibition
O=C(c1ccc(-c2ccccc2)c(F)c1)C1CCCN(C(=O)c2cncs2)C1 (stereo not given) | inconclusive: 14.6 µM [inhibitor, partial curve, poor fit] | –
CCCCN(C)C(=O)c1ccc2c(c1)N(Cc1ccc(F)cc1)C(=O)c1ccccc1S2(=O)=O | active: 16.4 µM | –
O=C(Nc1ccccc1F)C1CCN(S(=O)(=O)c2ccc3c(c2)CCCN3C(=O)C2CCC2)CC1 | inconclusive: 18.4 µM [inhibitor, single point] | –
COc1cccc(C(=O)c2c(-c3ccccc3)ncc3cc(OC)c(OC)cc23)c1 | inconclusive: 20.6 µM [inhibitor, single point] | –
COc1ccc(C(=O)Nc2ccc3oc(-c4cccc5c(Br)cccc45)nc3c2)cc1 | inconclusive: 16.4 µM [inhibitor, partial curve] | –
COc1ccc(C(=O)c2cc(C(C)=O)c(Nc3ccccc3)s2)cc1 | inconclusive: 29.1 µM [inhibitor, single point] | –
Cn1c(=O)c2cc(NC(=S)NC3CCCCC3)ccc2n1-c1ccccc1 | inconclusive: 29.1 µM [inhibitor, single point] | –
CCOC(=O)Cc1ccc(Nc2nc3cc(-c4sccc4C)sc3c(=O)n2C)cc1 | active: 2.91 µM | –
Cc1ccc(NC(=O)CCc2c(C)nn(-c3ccc(N4CCCCC4)nn3)c2C)cc1 | inconclusive: 25.9 µM [inhibitor, single point] | –
Cc1ccc(S(=O)(=O)ON2C(=O)c3ccccc3C2=O)c(C)c1 | active: 0.82 µM | –
N#Cc1ccccc1OCC(O)CNCCNC(=O)Nc1ccccc1 (stereo not given) | – | inactive: -4.2%
CC(C)(C)c1ccc(COn2ccnc2)cc1 | – | inactive: -23.2%
O=c1cc(CN2CCCc3ccccc32)nc2sccn12 | inconclusive: 16.4 µM [inhibitor, single point] | –
Cc1cc(OCC(=O)Nc2c(C(C)C)cccc2C(C)C)no1 | active: 13 µM | –
O=S1(=O)c2ccccc2N(Cc2ccccc2F)c2ccccc21 | inconclusive: 25.9 µM [inhibitor, partial curve, poor fit] | –
Cc1cccc(C(=O)OCC(=O)N(CC(C)C)c2c(N)n(Cc3ccccc3)c(=O)[nH]c2=O)c1O | inconclusive: 2.06 µM [inhibitor, full curve, poor fit] | –
CCCCN(C)C(=O)c1ccc2c(=O)n3nc(Nc4cc(C)ccc4C)sc3nc2c1 | active: 13 µM | –
Cc1cc(C(C)(C)C)oc1C(=O)O | – | inactive: -4.26%
N#Cc1ccsc1NC(=O)c1ccccn1 | inconclusive: 29.1 µM [inhibitor, single point] | –
CCCCCCCCCCCCCC(=O)OCC(COP(=O)([O-])OCC[N+](C)(C)C)OC(=O)CCCCCCCCCCCCC (stereo not given) | – | inactive: 4.69%
O=C(Cc1ccc(Cl)cc1)Nc1ccncc1 | active: 11.6 µM | –
CC(=O)Nc1ccc(S(=O)(=O)N(C)c2ccc(OCC(=O)Nc3ccccc3C(C)=O)cc2)cc1 | active: 18.4 µM | –
